From patent EP4667484A1 (QIZHEN BIOPHARMA CO., LTD. (HANGZHOU), dated 2025)

Molecular target: recombinant human IL-1β protein (Sino Biological) (human, UniProt P01584 117-269)
Experiment: cell-based or functional assay

inhibition of IL-1β-induced IL-6 production in human MRC-5 lung fibroblasts (IC50): 0.118 nM
B1: K131E mutant IL-1 trap protein (Fc fusion)
chain: SERCDDWGLDTMRQIQVFEDEPARIKCPLFEHFLKFNYSTAHSAGLTLIWYWTRQDRDLEEPINFRLPENRISKEKDVLWFRPTLLNDTGNYTCMLRNTTYCSKVAFPLEVVQKDSCFNSPMKLPVHKLYIEYGIQRITCPNVDGYFPSSVKPTITWYMGCYKIQNFNNVIPEGMNLSFLIALISNNGNYTCVVTYPENGRTFHLTRTLTVKVVGSPKNAVPPVIHSPNDHVVYEKEPGEELLIPCTVYFSFLMDSRNEVWWTIDGKKPDDITIDVTINESISHSRTEDETRTQILSIKKVTSEDLKRSYVCHARSAKGEVAKAAKVKQKVPAPRYTVELEADKCKEREEKIILVSSANEIDVRPCPLNPNEHKGTITWYKDDSKTPVSTEQASRIHQHKEKLWFVPAKVEDSGHYYCVVRNSSYCLRIKISAKFVENEPNLCYNAQAIFKQELPVAGDGGLVCPYMEFFKNENNELPKLQWYKDCKPLLLDNIHFSGVKDRLIVMNVAEKHRGNYTCHASYTYLGKQYPITRVIEFITLEENKPTRPVIVSPANETMEVDLGSQIQLICNVTGQLSDIAYWKWNGSVIDEDDPVLGEDYYSVENPANKRRSTLITVLNISEIESRFYKHPFTCFAKNTHGIDAAYIQLIYPVTADDDDK[human IgG1 Fc with changes not listed]
notes: also called K131E Trap; K131E-Fc
